For assay [1], the target named is TEX264-FLAG, wild type (UniProt Q9Y6I9). The assay is described as follows: co-IP; anti-FLAG M2 agarose on lysates of HEK293 or ΔTEX264 HEK293 cells expressing FLAG-tagged TEX264 variants; Benzonase, ethidium bromide; cells treated with DMSO or CPT (25 nM, 1 h).
Assay [2] addresses TEX264-SSH (UniProt Q9Y6I9). The assay is described as follows: co-IP; anti-Strep-tag immunoprecipitates from doxycycline-inducible TEX264-SSH HEK293 Flp-In TRex cells, with and without Dox, immunoblot.
Assay [3] deals with p97-myc-Strep, wild type (UniProt P55072). As to the kind of experiment: co-IP; Strep-Tactin Sepharose on lysates of HEK293 cells (wild type or ΔTEX264) expressing p97-myc-Strep variants; Benzonase, ethidium bromide; cells untreated or treated with DMSO, CPT (50 nM), CB-5083 (10 µM).
Assay [4] has as its target p97 E578Q-myc-Strep (ATPase-defective, substrate-trapping variant) (UniProt P55072). Described as above.
The target of assay [5] is T1, SPRTN-SSH (UniProt Q9H040).
T1 sequence: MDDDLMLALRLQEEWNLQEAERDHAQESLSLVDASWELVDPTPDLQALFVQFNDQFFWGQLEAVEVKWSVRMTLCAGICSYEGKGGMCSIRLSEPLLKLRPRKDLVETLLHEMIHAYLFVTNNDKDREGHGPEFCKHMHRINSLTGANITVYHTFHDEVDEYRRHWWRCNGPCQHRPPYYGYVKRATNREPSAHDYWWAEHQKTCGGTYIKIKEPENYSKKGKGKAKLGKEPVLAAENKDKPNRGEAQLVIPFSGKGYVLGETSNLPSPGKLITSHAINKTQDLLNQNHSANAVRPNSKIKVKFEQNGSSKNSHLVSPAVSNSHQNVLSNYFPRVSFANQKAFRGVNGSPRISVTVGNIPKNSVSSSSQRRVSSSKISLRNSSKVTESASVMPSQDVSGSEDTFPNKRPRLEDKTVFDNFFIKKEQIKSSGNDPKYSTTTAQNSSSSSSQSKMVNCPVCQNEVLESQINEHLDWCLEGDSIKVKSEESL
The assay is described as follows: co-IP; anti-Strep-tag immunoprecipitates from extracts of HEK293 cells expressing SPRTN-SSH, control or TEX264 siRNA.

Protein sequences, listed by entry. Tags and fused reporters are not part of them. Lines headed by an entry give the natural chain unless they say otherwise; changes in a name come on top. Chains listed by the source or under a name are the forms on record and can include a tag or linker.
UniProt Q9Y6I9: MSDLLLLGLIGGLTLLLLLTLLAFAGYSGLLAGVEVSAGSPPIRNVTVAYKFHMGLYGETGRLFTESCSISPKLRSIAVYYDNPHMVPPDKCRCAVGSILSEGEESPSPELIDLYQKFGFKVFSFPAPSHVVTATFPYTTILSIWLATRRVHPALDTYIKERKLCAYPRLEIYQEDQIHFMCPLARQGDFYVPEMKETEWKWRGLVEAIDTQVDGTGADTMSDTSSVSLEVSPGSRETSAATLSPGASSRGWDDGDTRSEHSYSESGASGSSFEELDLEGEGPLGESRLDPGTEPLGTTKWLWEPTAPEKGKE
p97 E578Q-myc-Strep (ATPase-defective, substrate-trapping variant) (P55072, form named): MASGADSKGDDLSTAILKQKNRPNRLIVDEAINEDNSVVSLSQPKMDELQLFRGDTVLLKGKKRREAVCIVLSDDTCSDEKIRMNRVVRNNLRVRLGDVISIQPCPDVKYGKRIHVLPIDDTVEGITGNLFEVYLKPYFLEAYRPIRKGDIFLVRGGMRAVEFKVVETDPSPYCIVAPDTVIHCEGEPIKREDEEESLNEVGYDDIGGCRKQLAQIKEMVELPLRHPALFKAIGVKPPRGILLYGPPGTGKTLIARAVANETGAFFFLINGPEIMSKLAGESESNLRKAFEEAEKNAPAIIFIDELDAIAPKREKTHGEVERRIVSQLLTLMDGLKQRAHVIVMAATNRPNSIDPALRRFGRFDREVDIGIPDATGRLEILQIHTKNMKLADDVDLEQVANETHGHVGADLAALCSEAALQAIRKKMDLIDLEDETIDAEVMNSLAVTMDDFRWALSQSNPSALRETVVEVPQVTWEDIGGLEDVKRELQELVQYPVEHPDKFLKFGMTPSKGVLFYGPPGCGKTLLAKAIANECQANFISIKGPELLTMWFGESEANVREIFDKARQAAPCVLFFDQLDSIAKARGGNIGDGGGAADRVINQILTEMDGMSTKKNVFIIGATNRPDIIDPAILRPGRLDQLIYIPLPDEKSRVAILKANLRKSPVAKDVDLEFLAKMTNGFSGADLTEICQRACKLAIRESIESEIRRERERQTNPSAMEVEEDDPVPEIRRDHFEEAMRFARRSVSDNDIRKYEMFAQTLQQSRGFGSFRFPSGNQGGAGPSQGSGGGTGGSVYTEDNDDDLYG
UniProt P11387: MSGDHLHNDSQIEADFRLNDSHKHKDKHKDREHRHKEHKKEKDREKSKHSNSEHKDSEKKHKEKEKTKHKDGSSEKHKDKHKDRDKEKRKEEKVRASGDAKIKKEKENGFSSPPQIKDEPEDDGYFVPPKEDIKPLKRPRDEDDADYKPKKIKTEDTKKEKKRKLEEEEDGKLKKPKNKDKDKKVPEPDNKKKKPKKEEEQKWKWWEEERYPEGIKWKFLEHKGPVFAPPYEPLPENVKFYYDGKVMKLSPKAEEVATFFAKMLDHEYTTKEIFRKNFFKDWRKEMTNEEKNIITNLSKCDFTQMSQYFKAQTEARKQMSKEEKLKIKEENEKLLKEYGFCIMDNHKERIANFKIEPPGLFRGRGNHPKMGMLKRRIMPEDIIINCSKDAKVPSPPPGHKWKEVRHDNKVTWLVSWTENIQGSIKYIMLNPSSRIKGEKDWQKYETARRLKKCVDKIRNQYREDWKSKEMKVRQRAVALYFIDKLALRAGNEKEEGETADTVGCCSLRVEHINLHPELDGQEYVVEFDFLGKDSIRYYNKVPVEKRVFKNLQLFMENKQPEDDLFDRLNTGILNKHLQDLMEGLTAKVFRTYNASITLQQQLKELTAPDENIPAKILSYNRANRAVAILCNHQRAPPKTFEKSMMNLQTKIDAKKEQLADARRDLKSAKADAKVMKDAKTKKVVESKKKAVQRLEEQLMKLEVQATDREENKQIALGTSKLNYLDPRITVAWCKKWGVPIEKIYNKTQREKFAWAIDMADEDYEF
UniProt P12004: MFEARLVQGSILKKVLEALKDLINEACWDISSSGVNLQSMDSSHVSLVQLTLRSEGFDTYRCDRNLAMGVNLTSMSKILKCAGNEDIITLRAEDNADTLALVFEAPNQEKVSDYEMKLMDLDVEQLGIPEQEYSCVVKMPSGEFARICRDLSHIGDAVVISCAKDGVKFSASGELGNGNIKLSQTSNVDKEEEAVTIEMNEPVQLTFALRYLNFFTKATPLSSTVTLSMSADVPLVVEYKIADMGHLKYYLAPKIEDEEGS

Assay [6] has as its target TEX264-FLAG, wild type (UniProt Q9Y6I9). As to the kind of experiment: condition: only after treatment of the cells with 1 µM CPT for 1 h; co-IP; FLAG immunoprecipitates of TEX264-FLAG from HEK293 cells treated with 1 µM CPT for 1 h.
Assay [7] deals with TEX264 E194A-FLAG (UniProt Q9Y6I9). As to the kind of experiment: co-IP; anti-FLAG M2 agarose on lysates of HEK293 or ΔTEX264 HEK293 cells expressing FLAG-tagged TEX264 variants; Benzonase, ethidium bromide; cells treated with DMSO or CPT (25 nM, 1 h).
Assay [8] has as its target recombinant p97-S tag (human) (UniProt P55072). As to the kind of experiment: pull-down; p97-S tag coupled to S-protein Agarose, incubated 2 h with TEX264^WT, TEX264^ΔSHP and/or recombinant TOP1; 137 mM NaCl, 20 mM Tris–HCl pH 7.0, 0.5% Triton X-100; 4 °C coupling; both purified.

No constants are given. Whether binding was seen depends on the method and setting. For some of these results: Binding seen in cells or lysates may run through a third protein. Some binding calls cover weakened binding; strength is not graded here.

For “Modified species of TOP1 (from UniProt P11387 1-765)”, in assay [1], the binding result is recorded as “binds”.
For the substance “PCNA (endogenous) (from UniProt P12004 1-261)”, the binding result in assay [2] is reported as “binds”.
For “Testes-expressed 264 (endogenous TEX264) (from UniProt Q9Y6I9 1-313)”, the binding result in assay [3], in assay [4] and in assay [5] was “binds” each time.
With “Topoisomerase 1 (endogenous TOP1) (from UniProt P11387 1-765)”, the binding result is “no binding” in assay [6], “binds” in assay [2] and “binds” in assay [1].
In the case of “p97 ATPase (endogenous) (from UniProt P55072 1-806)”, the binding entry in assay [2], in assay [7], in assay [1] and in assay [5] was “binds” in each case.
Turning to “recombinant TOP1 (from UniProt P11387 1-765)”, the binding result in assay [8] is listed as “binds weakly”.

For the origin of these results see paper PMC7062751.
